Our source for the enrichment ratio values is a collection of fitness landscapes (doi:10.1126/science.1257360).

Some of the results follow.

B1: PhoQ; a variant is named by its letters at X, in order, P23837 (parent)
chain: MKKLLRLFFPLSLRVRFLLATAAVVLVLSLAYGMVALIGYSVSFDKTTFRLLRGESNLFYTLAKWENNKLHVELPENIDKQSPTMTLIYDENGQLLWAQRDVPWLMKMIQPDWLKSNGFHEIEADVNDTSLLLSGDHSIQQQLQEVREDDDDAEMTHSVAVNVYPATSRMPKLTIVVVDTIPVELKSSYMVWSWFIYVLSANLLLVIPLLWVAAWWSLRPIEALAKEVRELEEHNRELLNPATTRELTSLVRNLNRLLKSERERYDKYRTTLTDLTHSLKTPLXXLQXXLRSLRSEKMSVSDAEPVMLEQISRISQQIGYYLHRASMRGGTLLSRELHPVAPLLDNLTSALNKVYQRKGVNISLDISPEISFVGEQNDFVEVMGNVLDNACKYCLEFVEISARQTDEHLYIVVEDDGPGIPLSKREVIFDRGQRVDTLRPGQGVGLAVAREITEQYEGKIVAGESMLGGARMEVIFGRQHSAPKDE

Variants of B1 are the subject of this assay. Put plainly: enrichment ratio after two sorts for PhoP signalling (ratio (wild type AVST 3.29)); higher = more functional. The settings on record: with PhoP (E. coli).
With NYVG, the enrichment ratio was at most 0.25.

With TQDP, the enrichment ratio is at most 0.25.

As to KRRT, the enrichment ratio is at most 0.25.

As for LFKE, the enrichment ratio is at most 0.25.

For QTGN, the enrichment ratio was at most 0.25.

On to GKGM, for which the enrichment ratio was at most 0.25.

On to ASWD, for which the enrichment ratio was at most 0.25.

Turning to QHVN, the enrichment ratio was at most 0.25.

Turning to NIRQ, the enrichment ratio was at most 0.25.

Consider YNRG, for which the enrichment ratio was at most 0.25.

As to FFQV, the enrichment ratio is at most 0.25.

Take GYWF: the enrichment ratio was at most 0.25.

HLKH: the enrichment ratio is at most 0.25.

In the case of QMSE, the enrichment ratio stood at 3.77.

In the case of KGIP, the enrichment ratio was at most 0.25.

Regarding EDNL, the enrichment ratio is at most 0.25.

On to NRLS, for which the enrichment ratio was at most 0.25.

On to MLNK, for which the enrichment ratio was at most 0.25.

Consider LVGT, for which the enrichment ratio is at most 0.25.

Regarding DVVQ, the enrichment ratio was at most 0.25.

Turning to RRHK, the enrichment ratio was at most 0.25.

DPHF: the enrichment ratio is at most 0.25.

Consider TNGP, for which the enrichment ratio is at most 0.25.

With RWHF, the enrichment ratio is at most 0.25.

Take ARWS: the enrichment ratio is at most 0.25.

Consider LHIH, for which the enrichment ratio is at most 0.25.

For SELI, the enrichment ratio was found to be 24.6.

For the variant VLDD, the enrichment ratio was at most 0.25.

QNYA: the enrichment ratio is at most 0.25.

On to WARA, for which the enrichment ratio is at most 0.25.

For the variant QQET, the enrichment ratio was at most 0.25.

Regarding YPMI, the enrichment ratio was at most 0.25.

On to MPYY, for which the enrichment ratio was at most 0.25.

Regarding PRFI, the enrichment ratio is at most 0.25.

As to NCGW, the enrichment ratio is at most 0.25.

Regarding PRKL, the enrichment ratio is at most 0.25.

On to NCDY, for which the enrichment ratio was at most 0.25.

On to PWHR, for which the enrichment ratio was at most 0.25.

In the case of SFWT, the enrichment ratio was at most 0.25.

On to KSNQ, for which the enrichment ratio is at most 0.25.

As for MPFK, the enrichment ratio is at most 0.25.

Regarding DDAR, the enrichment ratio was at most 0.25.

YCFW: the enrichment ratio is at most 0.25.

On to IGVH, for which the enrichment ratio is at most 0.25.

In the case of NDPK, the enrichment ratio is at most 0.25.

Regarding PCYS, the enrichment ratio was at most 0.25.

In the case of DCIP, the enrichment ratio was at most 0.25.

Regarding TDCS, the enrichment ratio came out at 11.3.

Consider HSLR, for which the enrichment ratio is at most 0.25.

As to TEKY, the enrichment ratio is at most 0.25.

For RGCR, the enrichment ratio is at most 0.25.

For PATP, the enrichment ratio is at most 0.25.

For SQEC, the enrichment ratio was at most 0.25.

As for KIPI, the enrichment ratio is at most 0.25.

TPFK: the enrichment ratio was at most 0.25.

For KQKD, the enrichment ratio is at most 0.25.

Regarding LKDG, the enrichment ratio was at most 0.25.

For DVEN, the enrichment ratio was at most 0.25.

Turning to KPPC, the enrichment ratio is at most 0.25.

In the case of TVNP, the enrichment ratio was at most 0.25.

On to WTNF, for which the enrichment ratio was at most 0.25.

On to HFNN, for which the enrichment ratio is at most 0.25.

For the variant ILPH, the enrichment ratio was at most 0.25.

FMKP: the enrichment ratio was at most 0.25.

Consider WHSW, for which the enrichment ratio is at most 0.25.

In the case of ATPA, the enrichment ratio is at most 0.25.

RKGI: the enrichment ratio is at most 0.25.

Regarding NVES, the enrichment ratio was at most 0.25.

In the case of IQCM, the enrichment ratio was at most 0.25.

Consider TYFT, for which the enrichment ratio is at most 0.25.

Regarding SAFG, the enrichment ratio is at most 0.25.

For the variant IMGD, the enrichment ratio was at most 0.25.

Consider WMDG, for which the enrichment ratio was at most 0.25.

Consider PTGR, for which the enrichment ratio was at most 0.25.

For the variant ERGH, the enrichment ratio is at most 0.25.

On to TNNN, for which the enrichment ratio came out at 14.7.

TPDG: the enrichment ratio was at most 0.25.

Turning to MFMG, the enrichment ratio is at most 0.25.

In the case of KTCP, the enrichment ratio was at most 0.25.

Take YTAC: the enrichment ratio is at most 0.25.

AEIQ: the enrichment ratio was 24.4.

For the variant HPNY, the enrichment ratio was at most 0.25.

Regarding YIYI, the enrichment ratio is at most 0.25.

Consider FNLW, for which the enrichment ratio is at most 0.25.

For SWRL, the enrichment ratio is at most 0.25.

As to PYSA, the enrichment ratio was at most 0.25.

With GCCS, the enrichment ratio worked out at 2.84.

For SCTS, the enrichment ratio is 14.9.

For the variant SQLQ, the enrichment ratio was determined as 13.6.

Consider RSWT, for which the enrichment ratio was at most 0.25.

On to MKGG, for which the enrichment ratio was at most 0.25.

For the variant EHSA, the enrichment ratio is at most 0.25.

Turning to LNDR, the enrichment ratio is at most 0.25.

Regarding MVVN, the enrichment ratio is at most 0.25.

On to NELA, for which the enrichment ratio was at most 0.25.

In the case of FFAR, the enrichment ratio was at most 0.25.

For the variant YLRQ, the enrichment ratio is at most 0.25.

As to SCRH, the enrichment ratio was at most 0.25.

Consider PYCD, for which the enrichment ratio is at most 0.25.

As to KLQC, the enrichment ratio is at most 0.25.

With DITS, the enrichment ratio is at most 0.25.

For the variant PFWS, the enrichment ratio was at most 0.25.

On to FFAA, for which the enrichment ratio was at most 0.25.

For the variant FWCQ, the enrichment ratio is at most 0.25.

With APFD, the enrichment ratio was at most 0.25.

Take QDHA: the enrichment ratio is at most 0.25.

Consider HMSA, for which the enrichment ratio was at most 0.25.

In the case of KPLA, the enrichment ratio was at most 0.25.

Consider ENIS, for which the enrichment ratio was at most 0.25.

Take QIQG: the enrichment ratio was at most 0.25.

HYND: the enrichment ratio is at most 0.25.

As for HWFQ, the enrichment ratio is at most 0.25.

Turning to GDFF, the enrichment ratio was at most 0.25.

As to HGPA, the enrichment ratio was at most 0.25.

For the variant HFYY, the enrichment ratio was at most 0.25.

Turning to EYHD, the enrichment ratio was at most 0.25.

EYYD: the enrichment ratio was at most 0.25.

MDAC: the enrichment ratio was at most 0.25.

For the variant IQHD, the enrichment ratio is at most 0.25.

With VKET, the enrichment ratio was at most 0.25.

KPHL: the enrichment ratio was at most 0.25.

Regarding FSTH, the enrichment ratio was at most 0.25.

Take MPPD: the enrichment ratio is at most 0.25.

Take VGEM: the enrichment ratio was at most 0.25.

As to NCDH, the enrichment ratio is at most 0.25.

As for FMMT, the enrichment ratio is at most 0.25.

In the case of NICS, the enrichment ratio was at most 0.25.

Consider HCTH, for which the enrichment ratio was at most 0.25.

In the case of TSSN, the enrichment ratio came out at 9.75.

Consider RDIM, for which the enrichment ratio was at most 0.25.

Regarding ENYD, the enrichment ratio is at most 0.25.

On to FETA, for which the enrichment ratio was at most 0.25.

QCPA: the enrichment ratio was at most 0.25.

In the case of LHHD, the enrichment ratio was at most 0.25.

Take WRDP: the enrichment ratio is at most 0.25.

ALFM: the enrichment ratio is at most 0.25.

Take RTHT: the enrichment ratio is at most 0.25.

On to SAFI, for which the enrichment ratio was at most 0.25.

As for FAKH, the enrichment ratio was at most 0.25.

With DCDK, the enrichment ratio is at most 0.25.

SHKC: the enrichment ratio was at most 0.25.

Regarding VWTG, the enrichment ratio was at most 0.25.

Regarding ASPA, the enrichment ratio was at most 0.25.

TRHT: the enrichment ratio is at most 0.25.

Turning to YSFG, the enrichment ratio is at most 0.25.

Consider YGWR, for which the enrichment ratio is at most 0.25.

Consider SAQM, for which the enrichment ratio amounted to 8.97.

In the case of KTYQ, the enrichment ratio was at most 0.25.

For the variant QQPA, the enrichment ratio was at most 0.25.

For LVCH, the enrichment ratio is at most 0.25.

Turning to PSRK, the enrichment ratio is at most 0.25.

Consider DGCL, for which the enrichment ratio is at most 0.25.

NVKP: the enrichment ratio is at most 0.25.

Take EMAD: the enrichment ratio was at most 0.25.

On to DTCW, for which the enrichment ratio was at most 0.25.

Take GHQD: the enrichment ratio was at most 0.25.

As for HTML, the enrichment ratio amounted to 11.7.

Consider VWFM, for which the enrichment ratio is at most 0.25.

Take MCYI: the enrichment ratio was 27.7.

For MHLG, the enrichment ratio was at most 0.25.

On to KYLH, for which the enrichment ratio is at most 0.25.

Regarding YSPI, the enrichment ratio is at most 0.25.

As to YNYR, the enrichment ratio was at most 0.25.

Regarding CWFR, the enrichment ratio was at most 0.25.

Consider GWDI, for which the enrichment ratio was at most 0.25.

For PSAS, the enrichment ratio was at most 0.25.

Regarding ISFA, the enrichment ratio was at most 0.25.

In the case of RNIG, the enrichment ratio was at most 0.25.

Regarding ILQS, the enrichment ratio was at most 0.25.

For GVNW, the enrichment ratio was at most 0.25.

As to LMYM, the enrichment ratio is at most 0.25.

For MCPC, the enrichment ratio stood at 3.66.

Take HFVE: the enrichment ratio was at most 0.25.

In the case of IIDI, the enrichment ratio is at most 0.25.

For FILY, the enrichment ratio is at most 0.25.

LDFV: the enrichment ratio was at most 0.25.

As to ADKP, the enrichment ratio was at most 0.25.

For the variant APSQ, the enrichment ratio was at most 0.25.

With GVAR, the enrichment ratio was at most 0.25.

With HMVK, the enrichment ratio is at most 0.25.

DAKY: the enrichment ratio was at most 0.25.

As for ACTL, the enrichment ratio was determined as 15.2.

Turning to DFKP, the enrichment ratio was at most 0.25.

Regarding DWFQ, the enrichment ratio is at most 0.25.

As for TEGV, the enrichment ratio was 12.6.

Take SKDG: the enrichment ratio was at most 0.25.

As for RCKH, the enrichment ratio is at most 0.25.

Regarding MLFD, the enrichment ratio was at most 0.25.

As for IESM, the enrichment ratio is at most 0.25.

For the variant NDTG, the enrichment ratio is at most 0.25.

On to WAPF, for which the enrichment ratio was at most 0.25.

Consider DESY, for which the enrichment ratio was at most 0.25.

As for VPLE, the enrichment ratio was at most 0.25.

In the case of HEML, the enrichment ratio is at most 0.25.

With LYNS, the enrichment ratio was at most 0.25.
